The full ranking holds about 110,000 compounds; the median of “z-score” is about -0.1, and the highest 2% start at about 2. Some of the results follow. The source made the active and inactive calls.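 Rule for the calls: active = z-score in the third read window above 3 or below -3; inactive = the rest.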
molecular target: Metabotropic glutamate receptor 8 (Rattus norvegicus) (UniProt P70579); assay: rat mGluR8 modulators via GIRK flux, primary screen, cell-based, thallium flux, HTS (AID 488969); details: HEK293 rat mGluR8, GIRK (G protein-gated inwardly rectifying potassium channel) thallium flux, FluoZin2; at 10 µM; stronger effect = higher value; submaximal glutamate (EC20) added with thallium
UniProt P70579, sequence (P70579 whole entry, looked up): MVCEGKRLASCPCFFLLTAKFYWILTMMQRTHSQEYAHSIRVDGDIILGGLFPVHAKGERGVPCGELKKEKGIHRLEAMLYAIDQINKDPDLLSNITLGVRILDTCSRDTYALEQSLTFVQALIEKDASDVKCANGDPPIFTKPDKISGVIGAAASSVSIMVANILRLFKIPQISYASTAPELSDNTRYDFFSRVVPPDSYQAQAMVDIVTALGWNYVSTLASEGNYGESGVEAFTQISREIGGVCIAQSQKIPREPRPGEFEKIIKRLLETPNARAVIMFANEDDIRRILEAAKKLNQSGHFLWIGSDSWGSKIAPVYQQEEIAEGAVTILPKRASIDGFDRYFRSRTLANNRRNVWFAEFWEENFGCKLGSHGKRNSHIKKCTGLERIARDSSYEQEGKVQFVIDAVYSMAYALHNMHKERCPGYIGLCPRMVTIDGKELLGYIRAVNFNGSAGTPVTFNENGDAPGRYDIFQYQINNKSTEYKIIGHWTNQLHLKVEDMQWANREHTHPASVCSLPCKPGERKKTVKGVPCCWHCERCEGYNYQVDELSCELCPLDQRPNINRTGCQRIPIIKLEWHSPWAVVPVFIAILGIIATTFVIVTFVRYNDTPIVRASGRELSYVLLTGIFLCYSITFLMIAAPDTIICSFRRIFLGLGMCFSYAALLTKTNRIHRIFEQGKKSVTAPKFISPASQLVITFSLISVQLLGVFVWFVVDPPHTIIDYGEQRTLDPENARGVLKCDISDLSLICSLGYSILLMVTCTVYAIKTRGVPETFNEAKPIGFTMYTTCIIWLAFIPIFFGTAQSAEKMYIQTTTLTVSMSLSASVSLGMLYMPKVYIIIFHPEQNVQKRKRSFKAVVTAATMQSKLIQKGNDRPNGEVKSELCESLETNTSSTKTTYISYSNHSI

| SMILES | z-score |
| --- | --- |
| Cc1sc(=NC(=O)c2ccco2)n(C)c1-c1ccccc1 | -1.03 |
| CN(CCCNC(=O)Cn1cc2c(n1)CCCC2)C1CCCCC1 | -0.148 |
| C[C@H](NS(=O)(=O)c1ccc(Cl)c(Cl)c1)C(=O)OCc1cc(=O)n2cc(Br)ccc2n1 | 0.313 |
| O=C(CSc1ccc2nnc(-c3ccccn3)n2n1)NCc1ccco1 | -0.383 |
| Cc1nnsc1C(=O)Nc1ccc(Cl)cc1Cl | -0.0382 |
| COc1ccc(/C=N/OCC(=O)N(Cc2ccc(OC)cc2)c2ccccc2C(=O)O)cc1 | -0.615 |
| COC(=O)CCC(=O)Nc1cc(S(=O)(=O)Nc2ccc(Cl)cc2)ccc1N1CCOCC1 | 0.147 |
| CCOc1ccc2nc(NS(C)(=O)=O)sc2c1 | 0.859 |
| Cc1ccc(F)cc1NCC(=O)Nc1ccc(Cl)cc1F | -0.36 |
| CCC1(C)Nc2ccccc2C(=O)N1O (stereo not given) | -0.11 |
| O=S1(=O)N=CN(Cc2cccc(F)c2)c2ccccc21 | -0.858 |
| COc1ccc([N+](=O)[O-])cc1NC(=S)Nc1ccccc1 | 0.443 |
| Cc1c(C(=O)NN2CCN(C)CC2)cccc1[N+](=O)[O-] | 0.315 |
| O=c1cc(N2CCCCC2)c(-c2ccccc2)nn1Cc1c(Cl)cccc1Cl | -0.0943 |
| COc1ccc(/C=C/C(=O)Nc2cc(C)nn2-c2nc3ccccc3[nH]2)cc1 | -0.199 |
| Cc1cnc(C(=O)Nc2nnc(C(C)C)s2)cn1 | 0.817 |
| Cc1c(C(=O)N/N=C/c2cccs2)nc2ccccn12 | -0.0796 |
| COc1ccc(C2C3=C(CC(C)(C)CC3=O)Oc3ncn(CCO)c(=N)c32)cc1OC (stereo not given) | 0.234 |
| COC(=O)c1ccc(C)c(NC(=O)CCc2ccc(OC)c(OC)c2)c1 | -0.242 |
| Cc1ccc(NC(=O)C2CC(=O)OC23CCOC(C)(C)C3)cc1 (stereo not given) | -0.427 |
| Cc1cccc(C(=O)N2CCN(C(=O)c3cccc(C)c3)C(C)C2)c1 (stereo not given) | -0.688 |
| CC1CCCCN1c1ncnc2ccccc12 (stereo not given) | -0.0781 |
| Cc1ccc(NS(=O)(=O)c2ccc(NC(=O)c3cccs3)cc2)cc1 | 0.0709 |
| Cn1c(=Nc2ccccc2)sc2ccccc21 | -0.206 |

| SMILES | z-score |
| --- | --- |
| Cn1c(SCC(=O)N2CCOCC2)nnc1-c1cccc(NC(=O)c2ccccc2F)c1 | -0.0191 |
| CC(=O)Nc1ccc2c(CSc3nnc(-c4cccnc4)n3-c3ccc(C)cc3C)cc(=O)oc2c1 | -0.955 |
| COc1ccc(CCN(C(=S)Nc2ccccc2)C2CC(=O)N(c3ccccc3)C2=O)cc1 (stereo not given) | -0.371 |
| FC(F)(F)c1cc(-c2ccccc2)nc(N2CCOCC2)n1 | -0.152 |
| COc1ccc(NC(=O)CSc2nnc(-c3ccncc3)n2CC2CCCO2)c(OC)c1 (stereo not given) | 0.543 |
| COc1ccc(C(=O)Nc2c(Cl)cc(Cl)cc2C(=O)NCCN2CCOCC2)cc1 | -0.486 |
| CCC(=O)Nc1ccc(C(=O)n2ccc(C)n2)cc1 | 0.233 |
| COCCCN=C1NN=C(c2cc(C)n(Cc3ccco3)c2C)CS1 | 0.0171 |
| N#CC(c1cccc(Cl)c1)c1ccc2c(C(F)(F)F)cc(C(F)(F)F)nc2n1 (stereo not given) | active: 10.5 |
| CCCC12CN3CC(CCC)(CN(C1)C3C(O)C(O)C(O)CO)C2=O (stereo not given) | 0.565 |
| CC(C)(C)NC(=O)C(c1ccncc1)N(Cc1cccs1)C(=O)Cn1nnc(-c2ccc(F)cc2)n1 (stereo not given) | -0.465 |
| N#Cc1cccc(NC(=O)CCC2CCCC2)c1 | 0.0235 |
| CCc1ccc(NC(=O)c2ccc3nc(N)sc3c2)cc1 | -0.53 |
| Cc1ccc(-n2ncc3c(=O)n(Cc4cccnc4)cnc32)cc1 | -0.666 |
| O=C(CSc1nc2ccccc2c(=O)[nH]1)N1CCCCC1 | -0.158 |
| Cc1ccc(S(=O)(=O)N(C)CC(=O)Nc2nc3ccccc3s2)cc1 | 0.716 |
| N#CC1=C(N)Oc2cc(N)ccc2C1C1CCCCC1 (stereo not given) | 0.0181 |
| N=C1C(c2nc3ccccc3s2)=C(O)CN1Cc1ccccc1 | 0.0639 |
| COc1ccc(C(=O)CSc2nnc(-c3cc4ccccc4cc3O)n2Cc2ccco2)cc1 | 0.923 |
| CCN(c1ccccc1)S(=O)(=O)c1ccc(Cl)c(NC(=O)CSc2ncn[nH]2)c1 | -0.854 |
| O=c1[nH]n2c(=O)c3c([nH]c2c1N=Nc1cccc(Cl)c1)CCCC3 | -2.43 |
| Cc1ccc(-n2nc(C)c(/C=N/NC(=O)c3cccnc3)c2Cl)cc1 | -0.239 |
| NC(=O)COc1c(-c2ccccc2)oc2ccccc2c1=O | 0.0735 |
| O=C(CCN1C(=O)C2C3C=CC(C3)C2C1=O)N1CCN(c2ccccc2Cl)CC1 (stereo not given) | -0.0556 |

| SMILES | z-score |
| --- | --- |
| Oc1ccc(-c2nc3ccc4ccccc4c3c3c2CCC3)cc1O | -0.202 |
| COc1ccc(OCC(=O)OCCNC(=O)c2cccnc2)cc1 | -0.0576 |
| O=C1C(=Cc2cccn2-c2ccc(O)cc2)C(=O)c2ccccc21 | -0.204 |
| COc1ccc(NC(=O)CSc2nnc(-c3ccccn3)n2N)cc1Cl | -0.222 |
| FC(F)(F)C(F)(F)C(F)(F)c1nnc2ccc(N3CCOCC3)nn12 | -1.11 |
| CCC(CC)c1nnc(NC(=O)c2cc(-c3ccccc3)nc3ccccc23)s1 | -0.847 |
| CCn1c(CNC(=O)COC)nc2ccccc21 | -0.318 |
| O=c1/c(=C\c2ccc(O)cc2)sc2n1C(c1ccccc1)C(c1ccccc1)=NN=2 (stereo not given) | -0.706 |
| COc1ccc(-c2nsc3c(SCc4ccccc4)ncnc23)cc1 | -0.933 |
| CNCC/C=C1/c2ccccc2CSc2ccccc21 | 1.44 |
| O=C1CSC(c2ccc3c(c2)OCO3)N1c1ccc(Oc2ccccc2)cc1 (stereo not given) | 0.205 |
| COc1ccc(/C(C)=N/Nc2ncc(Cl)cc2Cl)c(O)c1 | -0.165 |
| COc1ccc(N2CCN(C(=O)c3cc4c(-c5ccc(Cl)cc5)nn(C)c4s3)CC2)cc1 | -0.384 |
| COc1cc(CN(C)CC(=O)c2[nH]c(C)c(C(C)=O)c2C)ccc1OC(F)F | -0.206 |
| CCC1(C)Cc2c(sc3c2c(=O)n(C)c2nnc(SCc4ccccc4)n32)CO1 (stereo not given) | -0.196 |
| CCCCn1nnc(NC(=O)COc2cc(C)ccc2C(C)C)n1 | 1.04 |
| CCOc1cc(/C=N/O)ccc1OCc1ccc([N+](=O)[O-])cc1 | 0.209 |
| Cc1ccc(-c2cc(-c3ccccc3O)nc(N/N=C/c3cccnc3)n2)cc1 | -0.278 |
| COc1ccc(S(=O)(=O)N(CCCN2CCOCC2)Cc2ccc(OC)c(OC)c2)cc1 | -0.348 |
| CC(C)C(=O)NC(=S)NCC(=O)c1ccccc1 | -0.37 |
| Clc1ccc(-c2nnc(SCc3nc4ccccc4[nH]3)o2)c(Cl)c1 | -0.09 |
| CC(=O)c1sc(NC(=O)C(C)C)nc1C | 0.531 |
